Laboratory results: patent US11542275B2, “Substituted imidazolidin-2-one derivatives as PRMT5 inhibitors” (Aurigene Discovery Technologies Limited, priority 2018, dated 2023)

Biological target: PRMT5/MEP50 Complex (Homo sapiens (Human), UniProt O14744)
Assay: PRMT5 inhibition based on TR-FRET assay
Type: biochemical
Details: 32 nM PRMT5:MEP50 complex, 50 nM Histone-H4 peptide, 1 μM SAM, 90 minutes at room temperature
Excerpt: Protein arginine methyltransferase 5 (PRMT5) is a type II arginine methyltransferase that catalyze mono- and symmetric demethylation on arginine residues of histone or non-histone proteins in presence of S-adenosylmethionine (AdoMet or SAM) a cofactor responsible for donating the methyl group. PRMT5 is reported to be overexpressed in several human cancers. To identify compounds that inhibit the PRMT5 and decrease its activity, a TR-FRET based assay has been established. Time-resolved fluorescence resonance energy transfer (TR-FRET) HTS assays are homogeneous proximity assays where the interaction of two dye-labeled binding partners is detected by the energy transfer between a donor and an acceptor dye, and the subsequent light emission by the acceptor dye. PRMT5 catalyzes Histone H4 peptide which is biotin tagged to the Lysine amino acid at carboxyl end, in presence of S-adenosyl-1-methionine (SAM) to methylate the peptide. The antibody specific to mono methylated H4 peptide (H4R3) with Ig conjugate binds to the methylated peptide, indirectly binding to the Europium lanthanide. SureLight Allophycocyanin-Streptavidin binds to the biotin tag of the peptide, therefore accepting the energy transferred from the Europium lanthanide. This energy transfer between Europium to SureLight Allophycocyanin is a direct measure of the activity/inhibition of the PRMT5 enzyme.
Assay buffer: 20 mM BICINE (pH 7.6), 25 mM NaCl, 2 mM DTT, 0.01% Tween-20 and 0.01% BSA.
The compound dilutions were prepared as 7.5% DMSO stock solutions in assay buffer. To 2 μL (7.5×) of test compound, 5 μL of PRMT5 enzyme prepared in assay buffer (Final concentration of 32 nM in 15 μL reaction volume) was added and allowed for 30 minutes pre-incubation time in a white polystyrene 384-well plate at room temperature. […] The plates were then read on Victor-3 with Excitation at 340 nm and Emissions collected at 615 and 665 nm in TR-FRET protocol. […]

| SMILES | IC50 [µM] |
| --- | --- |
| O=C(C1CC1)N1CCC(c2cnc(CN3CCN(C[C@H](O)CN4CCc5ccccc5C4)C3=O)cn2)CC1 [Compound 41, (R)-1-((5-(1-(cyclopropanecarbonyl)piperidin-4-yl)pyrazin-2-yl)methyl)-3-(3-(3,4-dihydroisoquinolin-2(1H)-yl)-2-hydroxypropyl)imidazolidin-2-one] | 0.025 |
| CC(=O)N1CCC(c2cnc(CN3CCN(C[C@H](O)CN4CCc5ccccc5C4)C3=O)cn2)CC1 [Compound 34, (R)-1-((5-(1-acetylpiperidin-4-yl)pyrazin-2-yl)methyl)-3-(3-(3,4-dihydroisoquinolin-2(1H)-yl)-2-hydroxypropyl)imidazolidin-2-one] | 0.047 |
| CC(=O)N1CCC(c2ccc(CN3CCN(C[C@H](O)CN4CCc5ccccc5C4)C3=O)nn2)CC1 [Compound 38, (R)-1-((6-(1-acetylpiperidin-4-yl)pyridazin-3-yl)methyl)-3-(3-(3,4-dihydroisoquinolin-2(1H)-yl)-2-hydroxypropyl)imidazolidin-2-one] | 0.069 |
